From the supplement of paper PMC4967469
A lower IC50 marks a more sensitive line; fits outside the tested doses are given as limits. For AUC the same curve is integrated over the 256-fold range of doses and scaled to a fraction; it is 1 without any effect and falls as sensitivity rises. For some assays here: Where the top dose is marked as inferred, it was calculated from the reported fits.

Key:
Test in all cases: Viability of human cancer cell lines after 72 h of drug (GDSC screen)
[1] = compound: C=CC(=O)Nc1cc(-n2c(=O)ccc3cnc4ccc(-c5ccc(NS(C)(=O)=O)cc5)cc4c32)ccc1C [BMX-IN-1 (QL-XII-61)]; conditions: top dose 10 µM; top dose inferred
Procedure: (§1)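 Human cancer cell lines in 384-well plates, medium with 10% serum, drug for 72 h over a 256-fold dose range (nine 2-fold or five 4-fold steps up to the top dose). Adherent lines were fixed and stained with the nucleic acid dye Syto60, suspension lines read with resazurin; signal relative to control wells, capped at 0 and 100%. One two-parameter sigmoid per drug and line, fitted in a mixed model over all curves with the slope shared within a line.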

[2] = compound: C=CCNC1=C2C[C@@H](C)C[C@H](OC)[C@H](O)[C@@H](C)/C=C(\C)[C@H](OC(N)=O)[C@@H](OC)/C=C\C=C(/C)C(=O)NC(=CC1=O)C2=O [17-AAG]; conditions: top dose 1 µM
Procedure: as §1

[3] = compound: CCc1cc(-c2n[nH]c(C)c2-c2ccc3c(c2)OCCO3)c(O)cc1O [CCT018159]; conditions: top dose 10 µM; top dose inferred
Procedure: as §1

[4] = compound: CN(C)Cc1cccc(N=C(c2ccccc2)c2c(O)[nH]c3cc(C(=O)N(C)C)ccc23)c1 [BIX02189]; conditions: top dose 20 µM; top dose inferred
Procedure: as §1

[5] = compound: COC(=O)CNC(=O)C(=O)OC [Dimethyloxalylglycine]; conditions: top dose 4000 µM; top dose inferred
Procedure: as §1

[6] = compound: COc1cccc2c1C(=O)c1c(O)c3c(c(O)c1C2=O)C[C@@](O)(C(=O)CO)C[C@@H]3O[C@H]1C[C@H](N)[C@H](O)[C@H](C)O1 [Doxorubicin]; conditions: top dose 1.024 µM
Procedure: as §1

[7] = compound: COc1cccc2cc(-c3nc([C@H]4CC[C@H](C(=O)O)CC4)n4ncnc(N)c34)[nH]c12 [OSI-027]; conditions: top dose 20 µM
Procedure: as §1

[8] = compound: CS(=O)(=O)c1ccc(C(=O)Nc2ccc(Cl)c(-c3ccccn3)c2)c(Cl)c1 [Vismodegib]; conditions: top dose 10 µM; top dose inferred
Procedure: as §1

[9] = compound: Cc1cnc(Nc2ccc(F)cc2Cl)nc1-c1c[nH]c(C(=O)N[C@H](CO)c2cccc(Cl)c2)c1 [VX-11e]; conditions: top dose 5.12 µM; top dose inferred
Procedure: as §1

[10] = compound: Cc1cnc(Nc2ccc(OCCN3CCCC3)cc2)nc1Nc1cccc(S(=O)(=O)NC(C)(C)C)c1 [TG101348]; conditions: top dose 10.24 µM
Procedure: as §1

[11] = compound: O=C(c1ccc(C(=O)N2CCC(N3CCCC3)CC2)c(Nc2ccccc2)c1)N1CCC(N2CCCC2)CC1 [UNC1215]; conditions: top dose 1 µM; top dose inferred
Procedure: as §1

| Cell Line | AUC [1] | IC50 [1] [µM] | AUC [2] | IC50 [2] [µM] | AUC [3] | IC50 [3] [µM] | AUC [4] | IC50 [4] [µM] | AUC [5] | IC50 [5] [µM] | AUC [6] | IC50 [6] [µM] | AUC [7] | IC50 [7] [µM] | AUC [8] | IC50 [8] [µM] | AUC [9] | IC50 [9] [µM] | AUC [10] | IC50 [10] [µM] | AUC [11] | IC50 [11] [µM] |
| --- | --- | --- | --- | --- | --- | --- | --- | --- | --- | --- | --- | --- | --- | --- | --- | --- | --- | --- | --- | --- | --- | --- |
| huH-1 (liver, adherent) | 0.982 | > 10 | 0.512 | 0.0681 | 0.907 | > 10 | 0.984 | > 20 | 0.359 | 92.2 | 0.908 | > 1.02 | 0.952 | > 20 | 0.947 | > 10 | 0.984 | > 5.12 | 0.977 | > 10.2 | 0.982 | > 1 |
| no-11 (glioma, adherent) | 0.976 | > 10 | 0.749 | 0.397 | 0.788 | 5.62 | 0.956 | > 20 | 0.449 | 175 | 0.749 | 0.407 | 0.771 | 9.63 | 0.983 | > 10 | 0.975 | > 5.12 | 0.848 | > 10.2 | 0.981 | > 1 |
